The record followed here is PubChem BioAssay AID1508624 (National Center for Advancing Translational Sciences (NCATS), 2021).

The whole screen tested about 48,000 compounds, of which about 120 (0.25%) were called active. Not shown: some 4% with an inconclusive outcome. Calls follow the shape of the dose curve; as a rule, active = well fitted activation curve with a large enough effect; inconclusive = small, poorly fitted or top-dose-only effect, or another doubt; inactive = no such curve, though single readings can be large or run the other way. The list shows a part of the results.

A short description of the assay: Primary qHTS for Identification of Small Molecule Activators of Huntingtin-Antisense Promoter Activity. Also: nearly all actives have a fitted effect of over 55% in size. As to conditions: HEK293 HTT-AS promoter firefly luciferase reporter, 24 h; series mostly up to 57.5 µM; activity change, positive = activation: at the top concentration. In outline:
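HEK293 luciferase promoter-reporter cells (2,500/well) plated 24 h, then compounds added at up to 57.5 uM final for 24 h at 37 °C. Firefly luminescence by Dual-Glo, normalized to vehicle (0%) and zero RLU (-100%).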
For the compound `Cc1ccc(NC(=O)CN(C)S(=O)(=O)c2ccc3c(c2)n(C)c(=O)c(=O)n3C)c(C)c1`, the “activity change, positive = activation” value was inactive: -10.5%.
For `COc1ccc2c(c1)c1c(c(=O)n(Cc3ccccc3)c(=O)n1CC(=O)Nc1cc(C)cc(C)c1)n2C` the value was inactive: -14.1%; for `O=C(Nc1ccccc1OCc1cc(=O)n2ccccc2n1)c1cccc(Br)c1`, inactive: 0.301%; for `Cc1cc(C)cc(NC(=O)CSc2oc(-c3ccco3)nc2S(=O)(=O)c2ccccc2)c1`, inactive: -18.8%.
For `Cc1cccc(N2CCN(C(=O)c3ccc4c(c3)c(C)c(C)n4C)CC2)c1C` the value was inactive: -5.87%.
In the case of `CCOc1ccc(NC(=O)N2CCC(CN3CCCCCC3)CC2)cc1` it was inactive: -12.3%; in that of `Cc1ccc2c(n1)sc1c(=O)n(-c3cccc(C(F)(F)F)c3)nnc12`, inactive: 18.4%; in that of `Cc1ccc(Cl)cc1NC(=O)CCCn1c(=O)c2cccn2c2ccccc21`, inactive: -26.3%.
As to `Clc1ccc(OCc2nc(-c3ccc(-n4cccc4)cc3)no2)cc1`, the activity change, positive = activation was inactive: -5.29% [at 11.5 µM, percent change from vehicle, -100% = no light].
As to `COc1ccc(-c2nc3scc(CCNS(=O)(=O)c4cc(F)ccc4OC)n3n2)cc1OC`, the “activity change, positive = activation” value was inactive: -12.8%.
In the case of `Cc1ccc(CCNC(=O)CCCn2c(=O)c3ccccc3n(CC(=O)Nc3cc(Cl)ccc3C)c2=O)cc1` it was inactive: -0.102%; in that of `CC(=O)N1CCc2c(sc3nc(SCC(N)=O)n(-c4ccc(F)c(Cl)c4)c(=O)c23)C1`, inactive: -15.5%.
In the case of `Cc1ccc(CN2CCSc3ccc(C(=O)Nc4cc(C)cc(C)c4)cc32)cc1` it was inactive: 0.248%.
As to `CN(C(=O)CSc1nnc(-c2ccc([N+](=O)[O-])cc2)o1)C1CCCCC1`, the “activity change, positive = activation” value was inactive: 0.225%.
For `CC(=O)N1c2ccc(S(=O)(=O)N3CCCCCC3)cc2CC1C(=O)NCc1ccccc1` (stereo not given) the value was inactive: -1.2%; for `COc1cc2ncnc(Nc3cccc(Cl)c3)c2cc1OC`, inactive: -12.2%; for `COCCn1c(C)cc(O)c(C(c2ccccc2)N2CCN(CCO)CC2)c1=O` (stereo not given), inactive: 7.92%.
For the compound `COc1cc2c(cc1OC)C(COc1ccc3c(C)cc(=O)oc3c1)N(C(=O)c1cccc(OC)c1OC)CC2` (stereo not given), the “activity change, positive = activation” value was inactive: -15.6%.
For `NNc1nnc(NN)c2ccccc12` the value was inactive: 10%.
For `C=CCc1c(C)nc2nc(SCC(=O)Nc3cccc(Cl)c3)nn2c1C` the value was inactive: -29.7%; for `CC(C)CN(CC(C)C)c1nc(-c2ccc(Cl)cc2)nc2ccccc12`, inactive: -6.73%.
In the case of `CO/N=C(/C(=O)N[C@@H]1C(=O)N2C(C(=O)O)=C(Cn3nnc(C)n3)CS[C@H]12)c1csc(N)n1` it was inactive: -6.26%; in that of `Cc1c(Cl)cccc1NC(=O)c1ccc2c(c1)nnn2C1CCCC1`, inactive: -14.7%; in that of `CCOC(=O)c1c(C)oc2nc(C)nc(N(CC(C)C)CC(C)C)c12`, inactive: -35.3%.
In the case of `O=C(Nc1ccccc1C(=O)OCc1cc(=O)n2c3c(sc2n1)CCCC3)c1ccccc1`, the “activity change, positive = activation” value was inactive: -23.7%.
